Assay results from ChEMBL document CHEMBL4689842, “EUbOPEN Chemogenomics Library wave 1” (2021).
Not every entry of the source has a single result; some have several. This list holds those alone. An entry can have further records. Results that share an entry repeat one measurement (runs, samples, wells, individuals or studies).

Assays:
Assay type in all cases: toxicity, cell-based
Fibroblast = assay: Multiplex assay against human fibroblast
Procedure, shortened: (§1)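 Live cells were stained at seeding with Hoechst33342, BioTracker Green Microtubule Cytoskeleton Dye, MitoTracker Red and Annexin V Alexa Fluor 680, then imaged on a CQ1 microscope at 37°C and 5% CO2 after compound addition. CellPathfinder machine-learning gating split cells into Hoechst high-intensity objects or normal cells. Normal cells were split into healthy, pyknosed or fragmented nuclei, and pyknosed cells into mitotic or apoptotic. Tubulin, mitochondrial-mass and membrane-permeability phenotypes are per cents of healthy-nucleus cells.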

U2OS = assay: Multiplex assay against U2OS; settings: human; procedure, shortened: as §1
HEK-293T = assay: Multiplex assay against HEK293T; settings: human; procedure, shortened: as §1;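 on Population Tubulin-Different-Phenotype (%): share of the cells with healthy nuclei that show this phenotype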
[1] = 12 h, 10 µM, compound concentration 10 uM, replicate 1
[2] = 12 h, 10 µM, compound concentration 10 uM, replicate 2
[3] = 24 h, 10 µM, compound concentration 10 uM, replicate 1
[4] = 24 h, 10 µM, compound concentration 10 uM, replicate 2
[5] = 12 h, 1 µM, compound concentration 1 uM, replicate 1
[6] = 24 h, 1 µM, compound concentration 1 uM, replicate 1
[7] = 24 h, 1 µM, compound concentration 1 uM, replicate 2
[8] = 12 h, 1 µM, compound concentration 1 uM, replicate 2

## COc1cc(C)c(Sc2cnc(NC(=O)c3ccc(CNC(C)C(C)(C)C)cc3)s2)cc1C(=O)N1CCN(C(C)=O)CC1 (centres undefined)
Fibroblast; [1]
  Population Mitochondria Different-Phenotype (%): 1% and 7%
Fibroblast; [2]
  Population Tubulin-Different-Phenotype (%): 10% and 55%
Fibroblast; [3]
  Population Mitochondria Different-Phenotype (%): 1% and 5%
  Population Mitotic Cells (%): 42% and 8%
  Population Tubulin-Different-Phenotype (%): 3% and 15%
Fibroblast; [4]
  Population Mitochondria Different-Phenotype (%): 4% and 27%
  Population Tubulin-Different-Phenotype (%): 13% and 55%
U2OS; [1]
  Population Membrane Permeable-Phenotype (%): 36% and 10%
U2OS; [2]
  Population Membrane Permeable-Phenotype (%): 28% and 8%
U2OS; [3]
  Population Mitotic Cells (%): 21% and 71%
HEK-293T; [1]
  Population Mitochondria Different-Phenotype (%): 16% and 4%
  Population Tubulin-Different-Phenotype (%): 28% and 3%
HEK-293T; [2]
  Population Apoptotic (%): 14% and 4%
  Population Tubulin-Different-Phenotype (%): 45% and 5%
HEK-293T; [3]
  Population Mitochondria Different-Phenotype (%): 16% and 3%
  Population Tubulin-Different-Phenotype (%): 41% and 6%
HEK-293T; [4]
  Population Tubulin-Different-Phenotype (%): 39% and 5%

## CN1CCN(Cc2ccc(-c3cnc4[nH]cc(-c5ccc6[nH]ccc6c5)c4c3)cc2)CC1
Fibroblast; [1]
  Population Healthy Nuclei (%): 17%, 49%, 6%
  Population Membrane Permeable-Phenotype (%): 17%, 3%, 16%
  Population Mitochondria Different-Phenotype (%): 23%, 1%, 33%
  Population Mitotic Cells (%): 52% and 14%
  Population Pyknosed Nuclei (%): 54%, 11%, 58%
  Population Tubulin-Different-Phenotype (%): 11%, 0%, 83%
Fibroblast; [2]
  Population Fragmented Nuclei (%): 69%, 58%, 17%
  Population Healthy Nuclei (%): 28%, 8%, 10%
  Population Hoechst High Intensity Objects (%): 30%, 35%, 6%
  Population Membrane Permeable-Phenotype (%): 13%, 75%, 40%
  Population Mitochondria Different-Phenotype (%): 13%, 0%, 100%
  Population Pyknosed Nuclei (%): 2%, 32%, 72%
  Population Tubulin-Different-Phenotype (%): 31%, 75%, 100%
Fibroblast; [3]
  Population Healthy Nuclei (%): 10%, 34%, 8%
  Population Membrane Permeable-Phenotype (%): 26%, 1%, 42%
  Population Mitochondria Different-Phenotype (%): 26%, 0%, 14%
  Population Pyknosed Nuclei (%): 39%, 6%, 44%
  Population Tubulin-Different-Phenotype (%): 21%, 0%, 100%
  Total Cell Count: 212, 442, 112
Fibroblast; [4]
  Population Fragmented Nuclei (%): 74% and 5%
  Population Membrane Permeable-Phenotype (%): 12%, 100%, 50%
  Population Mitochondria Different-Phenotype (%): 12%, 100%, 25%
  Population Mitotic Cells (%): 50% and 0%
  Population Pyknosed Nuclei (%): 2%, 69%, 14%
  Population Tubulin-Different-Phenotype (%): 8% and 50%
U2OS; [1]
  Population Fragmented Nuclei (%): 25% and 5%
  Population Healthy Nuclei (%): 7%, 22%, 92%
  Population Pyknosed Nuclei (%): 67%, 60%, 2%
  Population Tubulin-Different-Phenotype (%): 97% and 26%
U2OS; [2]
  Population Apoptotic (%): 85%, 63%, 0%
  Population Healthy Nuclei (%): 10%, 37%, 85%
  Population Mitotic Cells (%): 14%, 36%, 100%
  Population Pyknosed Nuclei (%): 72%, 48%, 1%
  Population Tubulin-Different-Phenotype (%): 100% and 15%
U2OS; [3]
  Population Fragmented Nuclei (%): 35%, 19%, 11%
  Population Healthy Nuclei (%): 1%, 14%, 81%
  Population Hoechst High Intensity Objects (%): 9%, 23%, 6%
  Population Mitochondria Different-Phenotype (%): 100%, 85%, 29%
  Population Mitotic Cells (%): 1%, 6%, 35%
  Population Pyknosed Nuclei (%): 62%, 66%, 7%
  Population Tubulin-Different-Phenotype (%): 100% and 19%
U2OS; [4]
  Population Fragmented Nuclei (%): 29%, 5%, 12%
  Population Healthy Nuclei (%): 6%, 25%, 78%
  Population Hoechst High Intensity Objects (%): 18%, 33%, 10%
  Population Mitotic Cells (%): 4%, 0%, 33%
  Population Pyknosed Nuclei (%): 64%, 69%, 8%
HEK-293T; [1]
  Population Apoptotic (%): 19%, 78%, 20%
  Population Healthy Nuclei (%): 28%, 4%, 61%
  Population Mitochondria Different-Phenotype (%): 17%, 100%, 6%
  Population Mitotic Cells (%): 80%, 21%, 79%
  Population Tubulin-Different-Phenotype (%): 88%, 87%, 10%
  Total Cell Count: 932, 243, 700
HEK-293T; [2]
  Population Apoptotic (%): 72%, 7%, 16%
  Population Fragmented Nuclei (%): 8%, 5%, 2%
  Population Healthy Nuclei (%): 3%, 87%, 79%
  Population Hoechst High Intensity Objects (%): 12% and 2%
  Population Mitochondria Different-Phenotype (%): 83%, 7%, 27%
  Population Mitotic Cells (%): 27%, 92%, 83%
  Population Pyknosed Nuclei (%): 87%, 7%, 17%
  Total Cell Count: 188, 1439, 1248
HEK-293T; [3]
  Population Apoptotic (%): 43%, 87%, 19%
  Population Healthy Nuclei (%): 17%, 2%, 67%
  Population Mitochondria Different-Phenotype (%): 51% and 5%
  Population Mitotic Cells (%): 56%, 12%, 80%
  Population Pyknosed Nuclei (%): 65%, 81%, 14%
  Population Tubulin-Different-Phenotype (%): 72%, 66%, 14%
  Total Cell Count: 802, 218, 682
HEK-293T; [4]
  Population Apoptotic (%): 92%, 22%, 1%
  Population Fragmented Nuclei (%): 17%, 3%, 12%
  Population Healthy Nuclei (%): 3%, 53%, 84%
  Population Hoechst High Intensity Objects (%): 21% and 6%
  Population Mitochondria Different-Phenotype (%): 100%, 64%, 2%
  Population Mitotic Cells (%): 7%, 77%, 98%
  Population Pyknosed Nuclei (%): 79%, 43%, 2%
  Population Tubulin-Different-Phenotype (%): 100%, 98%, 29%
  Total Cell Count: 171, 1157, 2308

## c1ccc(-c2oc3ncnc(NC[C@@H]4CCCO4)c3c2-c2ccccc2)cc1
Fibroblast; [5]
  Population Tubulin-Different-Phenotype (%): 20% and 91%
Fibroblast; [6]
  Population Mitochondria Different-Phenotype (%): 41% and 4%
  Population Tubulin-Different-Phenotype (%): 92% and 16%
Fibroblast; [7]
  Population Mitochondria Different-Phenotype (%): 6% and 57%
U2OS; [5]
  Population Hoechst High Intensity Objects (%): 1% and 4%
  Population Membrane Permeable-Phenotype (%): 72% and 8%
  Population Tubulin-Different-Phenotype (%): 91% and 17%
U2OS; [8]
  Population Membrane Permeable-Phenotype (%): 66% and 20%
  Population Tubulin-Different-Phenotype (%): 98% and 20%
U2OS; [6]
  Population Membrane Permeable-Phenotype (%): 68% and 8%
U2OS; [7]
  Population Apoptotic (%): 92% and 20%
  Population Membrane Permeable-Phenotype (%): 61% and 13%
  Population Mitotic Cells (%): 8% and 80%
  Population Pyknosed Nuclei (%): 17% and 3%
  Population Tubulin-Different-Phenotype (%): 89% and 24%
HEK-293T; [5]
  Population Membrane Permeable-Phenotype (%): 40% and 3%
  Population Mitochondria Different-Phenotype (%): 13% and 4%
  Population Tubulin-Different-Phenotype (%): 80% and 3%
HEK-293T; [8]
  Population Apoptotic (%): 13% and 2%
  Population Fragmented Nuclei (%): 2% and 11%
  Population Membrane Permeable-Phenotype (%): 31% and 2%
  Population Mitochondria Different-Phenotype (%): 37% and 6%
  Population Pyknosed Nuclei (%): 23% and 4%
  Population Tubulin-Different-Phenotype (%): 96% and 8%
HEK-293T; [6]
  Population Membrane Permeable-Phenotype (%): 38% and 8%
  Population Mitochondria Different-Phenotype (%): 23% and 3%
  Population Pyknosed Nuclei (%): 23% and 7%
  Population Tubulin-Different-Phenotype (%): 91% and 5%
HEK-293T; [7]
  Population Fragmented Nuclei (%): 4% and 31%
  Population Membrane Permeable-Phenotype (%): 27% and 6%
  Population Mitochondria Different-Phenotype (%): 40% and 1%
  Population Pyknosed Nuclei (%): 21% and 2%
  Population Tubulin-Different-Phenotype (%): 98% and 9%

## COc1ccccc1-c1cc(Nc2cccc(CS(N)(=O)=O)c2)ncn1
Fibroblast; [1]
  Population Tubulin-Different-Phenotype (%): 18% and 2%
Fibroblast; [3]
  Population Tubulin-Different-Phenotype (%): 2% and 27%
U2OS; [1]
  Population Hoechst High Intensity Objects (%): 6% and 1%
U2OS; [2]
  Population Pyknosed Nuclei (%): 14% and 3%
U2OS; [3]
  Population Fragmented Nuclei (%): 10% and 3%
  Population Pyknosed Nuclei (%): 10% and 3%
U2OS; [4]
  Population Fragmented Nuclei (%): 22% and 5%
  Population Hoechst High Intensity Objects (%): 21% and 6%
  Population Membrane Permeable-Phenotype (%): 20% and 6%
  Population Pyknosed Nuclei (%): 13% and 2%
HEK-293T; [4]
  Population Fragmented Nuclei (%): 31% and 8%
  Population Mitochondria Different-Phenotype (%): 2% and 17%

## COc1cc(Nc2ccnc3ccc(Br)cc23)cc(OC)c1OC
Fibroblast; [5]
  Population Tubulin-Different-Phenotype (%): 38% and 4%
Fibroblast; [8]
  Population Healthy Nuclei (%): 27% and 8%
  Population Mitochondria Different-Phenotype (%): 0% and 33%
Fibroblast; [6]
  Population Tubulin-Different-Phenotype (%): 1% and 26%
Fibroblast; [7]
  Population Apoptotic (%): 0% and 75%
  Population Mitotic Cells (%): 100% and 25%
  Population Pyknosed Nuclei (%): 2% and 12%
U2OS; [8]
  Population Apoptotic (%): 76% and 0%
  Population Mitotic Cells (%): 23% and 100%
U2OS; [6]
  Population Mitochondria Different-Phenotype (%): 11% and 41%
  Population Mitotic Cells (%): 68% and 16%
U2OS; [7]
  Population Apoptotic (%): 87% and 8%
  Population Mitotic Cells (%): 12% and 91%
HEK-293T; [5]
  Population Mitochondria Different-Phenotype (%): 29% and 6%
  Population Tubulin-Different-Phenotype (%): 30% and 6%
HEK-293T; [8]
  Population Hoechst High Intensity Objects (%): 7% and 2%
  Population Mitochondria Different-Phenotype (%): 52% and 14%
  Population Tubulin-Different-Phenotype (%): 46% and 4%
HEK-293T; [6]
  Population Mitochondria Different-Phenotype (%): 44% and 8%
HEK-293T; [7]
  Population Pyknosed Nuclei (%): 37% and 12%
  Population Tubulin-Different-Phenotype (%): 51% and 5%

## Cc1c(Nc2ccc(S(=O)(=O)N3CCN(C)CC3)cc2F)nc2ccc(-c3cnn(C4CC4)c3)cn2c1=O
Fibroblast; [2]
  Population Mitochondria Different-Phenotype (%): 1% and 23%
  Population Pyknosed Nuclei (%): 23% and 3%
  Total Cell Count: 1176 and 36
Fibroblast; [3]
  Population Mitochondria Different-Phenotype (%): 1% and 4%
Fibroblast; [4]
  Population Pyknosed Nuclei (%): 3% and 22%
  Population Tubulin-Different-Phenotype (%): 13% and 3%
  Total Cell Count: 43 and 1103
U2OS; [1]
  Population Membrane Permeable-Phenotype (%): 27% and 7%
  Population Mitochondria Different-Phenotype (%): 7% and 22%
U2OS; [2]
  Population Apoptotic (%): 20% and 64%
  Total Cell Count: 129 and 36
U2OS; [4]
  Total Cell Count: 152 and 43
HEK-293T; [1]
  Population Mitochondria Different-Phenotype (%): 49% and 10%
HEK-293T; [2]
  Population Mitochondria Different-Phenotype (%): 53% and 12%
  Population Pyknosed Nuclei (%): 52% and 6%
  Total Cell Count: 261 and 1362
HEK-293T; [3]
  Population Fragmented Nuclei (%): 44% and 12%
  Population Hoechst High Intensity Objects (%): 43% and 13%
  Population Mitochondria Different-Phenotype (%): 48% and 9%
HEK-293T; [4]
  Population Apoptotic (%): 23% and 6%
  Population Hoechst High Intensity Objects (%): 24% and 7%
  Population Membrane Permeable-Phenotype (%): 4% and 22%
  Population Mitochondria Different-Phenotype (%): 45% and 2%
  Population Pyknosed Nuclei (%): 46% and 4%
  Total Cell Count: 284 and 1886
